Source: the supplement of paper PMC10126150
Sequences with one replicate were seen in a single cluster, so their values are uncertain.

Tested on: ATP
Assay: switch fluorescence ratio, 500 uM ATP over buffer (Cy3 cluster intensity, sum of 5 cycles each) (fold (ratio)); higher = stronger signal-on switching upon ATP binding; sequences stand for … in TCGTCGGCAGCGTCAGATGTGTATAAGAGACAGTTTTTTTTTTTTTTTTTTTTTTTTT…TC
Details: aptamer strand: ATP DNA aptamer (quencher-CACCTGGGGGAGTATTGCGGAGGAAGG + anchor), 100 nM annealed; ATP concentration: 500 uM; one replicate
Summary of the method: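 Per cluster, summed Cy3 intensity from the target cycles was divided by that from the buffer cycles to give the fluorescence ratio, then averaged per switch-domain sequence. Clusters outside 100-1000 RFU were excluded. The Cy3-labelled switching-strand clusters, on a modified Illumina MiSeq flow-cell, were annealed to 100 nM quencher-labelled ATP aptamer and imaged in selection buffer, then after 15 min with 500 uM ATP at 22 °C, for five cycles with NaOH stripping and re-annealing between them.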
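Further: ATP exposure 15 min at 22 °C before imaging.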

Sequence | switch fluorescence ratio
GCTTGACAGC | 1
GAACGTCGAC | 1.07
TCTAGCTTGA | 1.02
CCGTCCATT | 1.01
GCGTTTGAT | 1.02
CCTCATTGAT | 1.07
CTATTCCTTC | 1.05
GCTGTACCTA | 1.05
AGGGTGCTT | 1.03
TTGCAGTCGT | 1.03
ATGGATCCTG | 0.995
GAGCAAACGT | 1.24
CGAAGTATTG | 1.01
TTGTTAGCTC | 0.973
TGGAACAGGT | 0.985
GTATGCCCCG | 1.01
AGGGCTCGCT | 1.01
TCGTAGAGTT | 0.989
GAATTTTCTC | 1.03
GTTTTAGGA | 1.01
TGGGCGGCAT | 1.01
GTTATCGCAT | 1.04
CTGACGTCGG | 1.03
GGTTACTCAG | 1.07
TTGCATCTTC | 1.01
CACGTTCGCT | 1.09

Sequence | switch fluorescence ratio
GAGGTAGTTA | 1.03
GGGGTACAAC | 0.962
AAATACTGAG | 1.09
CCGTTTCCCG | 1
AGCTATATAG | 0.995
GCGGACCGAA | 1.06
TCCATTCCTT | 1.03
CAGGGTGCCT | 1.04
GTCGGGAGAT | 0.945
CGACATCTAA | 1.05
ACATATCTGA | 0.993
GCGTGTTATC | 1
AGTCCTCTGG | 1.08
CCCCTGGACA | 1.01
TTTGACTAGT | 0.964
CCAGAAACTT | 1.06
ATTGTCGTGC | 1.05
CACTGCCAAA | 1.06
CATGGGTTTT | 1.03
GCGCAATTCG | 2.39
TGAATTTATC | 0.982
CGGGCCTGA | 1.06
AGTGTGATC | 1.01
AAATGGCATA | 0.986
ACGCTTTCTC | 1.77
CCGGGTTGAA | 1.03

Sequence | switch fluorescence ratio
TATCAACCAA | 0.977
GAGGACAGCG | 1.06
TGCTTTGGAG | 0.992
TGATGACTAA | 0.995
TATCCGGAGA | 1.04
ATGAGCTATG | 1.01
ATTGGGGA | 0.977
CAGCTGGAGT | 0.999
CGGGCTATAT | 1.29
CCAAGATAGA | 1.06
CTCTTATATT | 0.961
GACTCTGCGT | 1.71
TAAATGAGTT | 0.993
CTGGAAGAG | 1.06
AAACTGGTGC | 1.17
ACCGGTAGCA | 1.07
AATCTTAATT | 0.943
ATTATTTCTG | 0.974
GAGAGTGGTA | 0.993
AGTCCAGTCA | 0.985
AAGACGGTGG | 0.982
ACAAATAGAT | 1.03
AGTTGCTTG | 1.04
TTGTTAGGT | 1.21
GGAGGGGTAG | 1.06
AGCCCATTAC | 2.32

Sequence | switch fluorescence ratio
ACAGGGCCGG | 0.991
TAGTGTGGGT | 1.05
ACGCATTGTG | 1.02
TGCCTAGA | 1.01
AAAGTTTGA | 1.01
AGAAGCTCAT | 0.985
GATCTTCTAT | 0.984
AACCGACACG | 1.31
TGCCAACCTT | 1.01
GCTTCCATTT | 1
GCGTACAGTA | 1.06
TATTTTACGA | 0.995
AAGTGTTATG | 1.01
TGGTTCTTTG | 0.993
TTGTAAAAA | 1.05
CTGTGCGAAA | 1.02
GTGTTCGCTC | 1.05
TGATCGAGAG | 0.971
GAAGCCAGGG | 1.13
CAACGTATTG | 1.04
TGATTACAGA | 0.983
CTTTTAAGTT | 0.973
CGTATGTACA | 1.02
TTGGAGCCTG | 1.01
AAAAACTATA | 0.979
TTTTTAAGC | 0.982

Sequence | switch fluorescence ratio
AGCGCTTGAT | 0.975
TCGCGAGCTG | 1.02
CGTGTTGATG | 0.984
CCGAAAGTAG | 1.79
CTCGCGGAGT | 0.998
ACTTACGAC | 1.45
GTAGAAAATT | 1
TCGGAACCGG | 0.987
TTAGTCGTT | 0.975
CACATTCAGT | 0.936
TGTATACTGG | 0.975
CAATTAGAAG | 0.972
CAACTGTCTA | 0.968
CCGGATCT | 1.04
CCGAATCCTG | 1.05
ATTGTGTTAC | 1.05
TCATGGGAGT | 1
ACATACGTGC | 1.32
ATTGGTAGCC | 1.03
ATCTGGAGGT | 1.01
ACGATGCTTT | 1.12
TTACAGTTTG | 0.913
CGGGATTCG | 0.964
TTGGCTCAAA | 1.02
CAGCTGACCC | 0.99
TGCACCTATT | 1.05

Sequence | switch fluorescence ratio
GGGTGTTGCC | 1.03
TCCATCCA | 0.995
TGGCTTTTG | 0.967
TGAGTATGTT | 0.985
GGTTGGACCG | 1.01
TATTGACACG | 0.971
CTAACTTTCT | 1.03
TACTGTTAAG | 0.958
CATGAATTA | 0.991
CCCGATTACA | 0.999
TGATGTGCTC | 1.01
TAAACATTTT | 1.06
ATTAAGAGTC | 0.97
CATAATGTGC | 0.982
TTAGGCCCAG | 0.999
AAGACTCGG | 1.06
GCCAGATCAA | 1.03
TCTGCGGTTA | 1.04
TTCGTCCCA | 0.982
TGGCCATAAG | 1.04
GGCGTATGCG | 1.04
AAGGGTGTAT | 1.02
CCTGACCTTC | 1.35
TGGCACATAC | 4.2
GGTGGTGTGC | 0.984
CCAGTTCTGA | 0.983

Sequence | switch fluorescence ratio
TCACCTGGCG | 0.981
TAATTAAGCG | 1
AGGAGGTCCC | 1.02
TCGTCGTTGC | 0.956
CTAGGGAGTT | 0.977
CCAAAATCAA | 1.02
TATTGGAGAC | 0.982
TTTTCGGCTA | 0.954
AAATATTTAA | 0.963
GTCTTCACCG | 1.03
ATGTTCAGGG | 1.02
AGAGATTAGT | 0.975
TGCTCTTAGC | 0.983
TGTATTTATA | 1.02
TACTTCATG | 0.984
AAGGAGCGTT | 0.975
TGGTTCTGAG | 1
CAACCGGTCC | 1.37
CTGGTGTCGG | 0.972
CTAGGGTCT | 0.964
AGTAGGATGG | 0.991
TGAAGCCATG | 0.934
CCCCGTTTTT | 1.17
TTTCTCCTCC | 1.56
AGGAGGCAAT | 1.16
AGAGAGGTGG | 1

Sequence | switch fluorescence ratio
TACGAAGGA | 0.98
ACGGTTGGAC | 1.07
CGAGACGGG | 1
CTCGCATGTA | 1.21
ATGATAAGAA | 1.01
AGGTCTAACT | 1
CAGTATCATT | 0.996
GAGCTAGTCG | 0.921
GGCCCCGCCA | 1.01
CTGTGCAGGT | 1.04
GCTTTATATT | 1.06
TTGGCCAGCA | 1.02
TGGGGAGG | 0.978
TGCCACCGAG | 1.08
CGTATTATTC | 1.04
TATGTCTTGT | 0.974
AGGCGTTTT | 0.956
GGCTGCCGTG | 1.04
TAGTTAAGCT | 0.958
